Article PMC2362091, “Expression of V1A and GRP receptors leads to cellular transformation and increased sensitivity to substance-P analogue-induced growth inhibition” (British Journal of Cancer, 2005)

Molecular target: GRP (Homo sapiens), P07492
Assay: competition

Sequence of GRP (Homo sapiens), P07492 (P07492 24-50): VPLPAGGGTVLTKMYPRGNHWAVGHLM

B1: GRP receptor, P30550 (protein)
chain: MALNDCFLLNLEVDHFMHCNISSHSADLPVNDDWSHPGILYVIPAVYGVIILIGLIGNITLIKIFCTVKSMRNVPNLFISSLALGDLLLLITCAPVDASRYLADRWLFGRIGCKLIPFIQLTSVGVSVFTLTALSADRYKAIVRPMDIQASHALMKICLKAAFIWIISMLLAIPEAVFSDLHPFHEESTNQTFISCAPYPHSNELHPKIHSMASFLVFYVIPLSIISVYYYFIAKNLIQSAYNLPVEGNIHVKKQIESRKRLAKTVLVFVGLFAFCWLPNHVIYLYRSYHYSEVDTSMLHFVTSICARLLAFTNSCVNPFALYLLSKSFRKQFNTQLLCCQPGLIIRSHSTGRSTTCMTSLKSTNPSVATFSLINGNICHERYV
Kd: 2.55 nM
